Source: PubChem BioAssay AID624418 (National Center for Advancing Translational Sciences (NCATS), 2012)
Screen size: about 410,000 compounds; about 530 (0.13%) were called active. The inconclusive results got no clear call from the source; some entries with a clear call stand among them for comparison. Calls follow the shape of the dose curve; as a rule, active = well fitted inhibition curve with a large enough effect; inconclusive = small, poorly fitted or top-dose-only effect, or another doubt; inactive = no such curve, though single readings can be large or run the other way. Where the call is inconclusive, the potency comes from a doubtful curve fit.

Experiment: qHTS of GLP-1 Receptor Inverse Agonists: Cytotox Screen
Conditions: HEK293 cAMP-luciferase reporter cells, luminescence, 24 h; activity change, negative = inhibition: at 38.3 µM (top of the series) unless noted
How it was run: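 Here, cytotoxicity is scored as loss of luminescence. The MLSMR collection was tested on cells seeded in medium containing 10% Nu serum, with a 24 hr compound exposure preceded by 12 hours of culture.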
% is scaled to controls: 0 for no effect and ±100 for the full control effect; potency is read from the fitted curve at half-maximal effect.

SMILES	Potency	activity change, negative = inhibition
Cc1ccc(-c2cc(C(F)F)nc(S(C)(=O)=O)n2)cc1	inconclusive: 12.6 µM [inhibitor, single point]	
O=C1CC(c2cccc(Cl)c2)c2cc3c(cc2N1)CCC3 (centres undefined)	inconclusive: 5.62 µM [inhibitor, full curve, poor fit]	
Cc1cccc(Oc2ccc3c(c2)Oc2ccccc2NC3=O)c1		inactive: -1.04%
O=C(O)c1cccc(-n2cccc2/C=C2/SC(=O)N(CC(=O)N3CCCC3)C2=O)c1	inconclusive: 7.94 µM [inhibitor, partial curve, poor fit]	
CC(C)CCNC(=O)NC(=O)COC(=O)/C=C/c1cnc2ccccc2n1	inconclusive: 28.2 µM [inhibitor, single point]	
COc1ccc(-n2nnnc2SCC(=O)Nc2ccc3c(c2)OCCO3)cc1OC	inconclusive: 15.8 µM [inhibitor, partial curve, poor fit]	
CS(=O)(=O)Nc1cccc(C2=NN(C(=O)c3ccccc3Cl)C(c3ccccc3O)C2)c1 (centres undefined)	inconclusive: 7.94 µM [inhibitor, partial curve, poor fit]	
COc1cc(OC)c(N2CC(C(=O)Nc3cc(Cl)ccc3N3CCOCC3)CC2=O)cc1Cl (centres undefined)	inconclusive: 5.62 µM [inhibitor, partial curve]	
CC1CCN(Cc2ccc(NC(=O)CC3Oc4ccccc4NC3=O)cc2)CC1 (centres undefined)	inconclusive: 28.2 µM [inhibitor, single point]	
COc1ccc2oc(-c3ccccc3[N+](=O)[O-])cc(=O)c2c1	inconclusive: 10 µM [inhibitor, partial curve]	
CN(C)CC/C=C1/c2ccc(F)cc2Sc2ccc(Cl)cc21	inconclusive: 12.6 µM [inhibitor, single point]	
CCc1ccc(S(=O)(=O)NCCc2csc(-c3cccnc3)n2)s1		inactive: 8.29%
O=C(N/N=C/c1cccnc1)c1cc2c(ccc3ccccc32)o1	inconclusive: 10 µM [inhibitor, partial curve]	
CCN(c1ccccc1)S(=O)(=O)c1ccc(C(=O)Nc2cccc(C)n2)cc1		inactive: 1.33%
OCCC#Cc1ccc(CN2CCN(CCc3ccccc3)C(CCO)C2)cc1 (centres undefined)		inactive: -9.81%
Fc1ccc(-[n+]2nc(Nc3ccccc3)sc2-c2c3ccccc3cc3ccccc23)cc1	inconclusive: 10 µM [inhibitor, partial curve]	
O=C(Nc1nc2ccccc2[nH]1)c1cccc(Br)c1	inconclusive: 3.16 µM [inhibitor, partial curve, poor fit]	
COC(=O)/C=C/C(=O)Nc1cccc(C(F)(F)F)c1	inconclusive: 12.6 µM [inhibitor, single point]	
O=C(NC1CCN(Cc2ccccc2)CC1)c1cc(S(=O)(=O)Nc2ccc(F)cc2)ccc1Cl	inconclusive: 10 µM [inhibitor, single point]	
COc1ccc(OC)c(CCNC(=O)C(C)n2c(C)c3cnn(-c4ccccc4)c(=O)c3c2C)c1 (centres undefined)		inactive: -10.2%
CCOC(=O)c1c(C)[nH]c(C)c1S(=O)(=O)N1CCC(C(=O)NCc2ccc(N(C)C)cc2)CC1		inactive: -5.12%
CC(C)(C)C(=O)N1CCN(c2ccc(Cl)cc2[N+](=O)[O-])CC1	inconclusive: 11.2 µM [inhibitor, single point]	
Cc1ccn2c(-c3csc(NCc4ccco4)n3)c(C)nc2c1	inconclusive: 11.2 µM [inhibitor, single point]	

SMILES	Potency	activity change, negative = inhibition
Cc1noc(C)c1COc1cccc(C(=O)OCCOc2ccc(F)cc2)c1		inactive: 17.9%
CC(C)CN(CC(C)C)C(=S)Nc1ccc(Cl)cc1	inconclusive: 14.1 µM [inhibitor, single point]	
CCOC(=O)C(=CNc1ccc(NC2=NCC(C)S2)cc1)C(=O)OCC (centres undefined)	inconclusive: 22.4 µM [inhibitor, single point]	
Cc1ccc(NC(=S)Nc2ccccn2)cc1C	inconclusive: 4.47 µM [inhibitor, full curve]	
O=C(Nc1ccccn1)N1CCOCC1		inactive: 1.25%
O=C(CCS(=O)(=O)c1ccccc1)Nc1nncs1	inconclusive: 12.6 µM [inhibitor, partial curve, poor fit]	
COc1ccc(C(=O)NCC(c2ccco2)N(C)C)cc1S(=O)(=O)NCc1ccc(Cl)cc1 (centres undefined)		inactive: 0.731%
CN1CCC(n2[nH]c(-c3ccccc3)c(Cc3ccccc3)c2=O)CC1		inactive: -18.9%
Cc1ccc2nc(SCC(=O)Nc3ccc4c(c3)CCC4)[nH]c2c1		inactive: -7.74%
Cc1ccc(C)c(OCCn2nnc3ccccc32)c1		inactive: 3.96%
CCOC(=O)c1[nH]c(C)c(C(=O)OCC(=O)NCc2ccc(OC)cc2)c1C		inactive: -11.2%
COc1ccccc1NC(=S)NCCC(c1ccccc1)c1ccccc1		inactive: -23.7%
C=Cc1ccc(Cn2c(C(=O)O)c(CNCc3ccccc3)c3ccc(OC)cc32)cc1	inconclusive: 12.6 µM [inhibitor, single point]	
COc1cc(OC)cc(C(=O)Nc2ccc(NC(=O)c3ccco3)c(Cl)c2)c1	inconclusive: 28.2 µM [inhibitor, single point]	
Cc1nn(Cc2ccc(Cl)c(Cl)c2)c(C)c1NC(=O)c1cc(-c2ccco2)on1		inactive: -22.4%
Cc1[nH]n2c(=O)cc(-c3ccc([N+](=O)[O-])cc3)nc2c1-c1ccccc1	inconclusive: 28.2 µM [inhibitor, single point]	
Cc1ccc(CCNC(=O)c2cccc(Nc3nc4ccccc4nc3-n3nc(C)cc3C)c2)cc1		inactive: 7.89%
COc1cc(Br)ccc1C1C(C(=O)Nc2ccc(C)cc2C)=C(C)Nc2nnnn21 (centres undefined)		inactive: -4.51%
CC(C)(C)CC(C)(C)NCC(O)COc1ccc2c(c1)CCC2 (centres undefined)	inconclusive: 14.1 µM [inhibitor, partial curve, poor fit]	
CCN(c1ccccc1)S(=O)(=O)c1ccc(C(=O)N(CCCN(C)C)c2nc3c(C)cccc3s2)cc1	inconclusive: 11.2 µM [inhibitor, partial curve, poor fit]	
CCN(c1ccccc1)S(=O)(=O)c1ccc(C(=O)Nc2cccc(NC(C)=O)c2)cc1		inactive: -3.06%
CC(OC(=O)c1cc[n+]([O-])cc1)C(=O)Nc1ccc(C(N)=O)cc1 (centres undefined)	inconclusive: 28.2 µM [inhibitor, single point]	
CCN1CCCC1Cn1cnc2c([nH]c3cccc(Cl)c32)c1=O (centres undefined)	inconclusive: 8.91 µM [inhibitor, partial curve]	

SMILES	Potency	activity change, negative = inhibition
O=C(NCCc1ccccc1)C1CCCN(S(=O)(=O)c2cnc[nH]2)C1 (centres undefined)	inconclusive: 22.4 µM [inhibitor, single point]	
Cc1c(C(=O)Nc2ccc(Cl)cc2)c2ccccn2c1CCc1ccncc1		inactive: 9.62%
CCS(=O)(=O)c1ccc(OC)c(N=Nc2ccc(O)c3ncccc23)c1		inactive: -7.32%
c1cc(-c2cc3nc(NC4CCCCC4)ccn3n2)ccc1OCCN1CCOCC1	inconclusive: 28.2 µM [inhibitor, single point]	
COc1ccc(CNc2nc3ccccc3n2CCN2CCCCC2)c(OC)c1	inconclusive: 28.2 µM [inhibitor, single point]	
O=c1ccn(Cc2ccccc2)c(=O)n1Cc1ccccc1		inactive: -0.19%
O=C(Nc1ccccc1N1CCCCC1)c1ccc(-c2ccc(Cl)cc2)o1	inconclusive: 3.16 µM [inhibitor, full curve, poor fit]	
COc1cc(NC(=O)CSCC(=O)Nc2cccc(C(F)(F)F)c2)c(Cl)cc1Cl		inactive: -23.5%
CN1CCN(C(=O)CCN2C(=O)/C(=C\c3ccc(Cl)cc3)SC2=S)CC1	inconclusive: 0.891 µM [inhibitor, full curve, poor fit]	
CCOc1ccc(N=Cc2ccc(N(C)C)cc2)c(O)c1	inconclusive: 7.08 µM [inhibitor, partial curve, poor fit]	
CCCCCCCCOC(=O)C1=C(C)Nc2nnnn2C1c1cccs1 (centres undefined)	inconclusive: 20 µM [inhibitor, single point]	
NC1=C(Cl)C(=O)c2ccccc2C1=O	inconclusive: 28.2 µM [inhibitor, single point]	
CCOc1ccc2nc(C)cc(Nc3ccc4c(c3)OCCO4)c2c1	inconclusive: 28.2 µM [inhibitor, single point]	
CC(C)c1cc(NC(=O)c2ccccc2)cc(C(C)C)c1O		inactive: -1.87%
COc1cc(/C=C2\SC(=S)N(C(C(=O)O)c3ccccc3)C2=O)ccc1O (centres undefined)	inconclusive: 10 µM [inhibitor, partial curve, poor fit]	
CCn1c(Cn2nnc(-c3ccccc3)n2)nnc1SCC(=O)Nc1cccc(C(C)=O)c1	inconclusive: 12.6 µM [inhibitor, single point]	
Cc1cc(N2CCCCC2)n2nc(C)c(-c3ccccc3)c2n1		inactive: -6.21%
CN1CCN(c2ccccc2NC(=O)Cn2ncc3c([nH]c4ccccc43)c2=O)CC1	inconclusive: 14.1 µM [inhibitor, single point]	
CCCCCCCCN1C(=O)[C@H](CC(=O)NCc2ccc(OC)c(OC)c2)C[C@@]2(C(=O)OCC)CCCC=C12	inconclusive: 22.4 µM [inhibitor, single point]	
COc1ccc(C(=O)Oc2cc(/C=N/NC(N)=S)ccc2OC)cc1	inconclusive: 6.31 µM [inhibitor, full curve, poor fit]	
COc1ccc(NC(=O)NCc2cccnc2)cc1	inconclusive: 2.24 µM [inhibitor, partial curve, poor fit]	
Cc1ccc(N(Cc2cc3ccccc3[nH]c2=O)C(=O)c2cccc(Cl)c2)cc1		inactive: 4.13%
COc1ccccc1CNc1nc2ccccc2n1CCN1CCCCC1	inconclusive: 11.2 µM [inhibitor, single point]	
